Measured values reported in PubChem BioAssay AID894 (National Center for Advancing Translational Sciences (NCATS), 2007).
Values joined by “and” are separate entries in the source; they are usually repeats but may differ in a detail not shown here. Equal values may be shown once. In all, about 150,000 compounds went through this assay and about 6,500 (4.3%) were called active. This list was built around the results that the source calls inconclusive (neither active nor inactive); the mix of calls is not that of the screen. Calls follow the shape of the dose curve; as a rule, active = well fitted inhibition curve with a large enough effect (not every such curve was filed as active); inconclusive = small, poorly fitted or top-dose-only effect, or another doubt; inactive = no such curve, though single readings can be large or run the other way. Where the call is inconclusive, the potency comes from a doubtful curve fit.

target: 15-hydroxyprostaglandin dehydrogenase [NAD(+)] (Homo sapiens) (UniProt P15428); test: qHTS Assay for Inhibitors of HPGD (15-Hydroxyprostaglandin Dehydrogenase); conditions: purified HPGD, NADH fluorescence kinetic, PGE2 substrate; activity change, negative = inhibition: active compounds read low
Sequence of UniProt P15428 (P15428 whole entry, looked up): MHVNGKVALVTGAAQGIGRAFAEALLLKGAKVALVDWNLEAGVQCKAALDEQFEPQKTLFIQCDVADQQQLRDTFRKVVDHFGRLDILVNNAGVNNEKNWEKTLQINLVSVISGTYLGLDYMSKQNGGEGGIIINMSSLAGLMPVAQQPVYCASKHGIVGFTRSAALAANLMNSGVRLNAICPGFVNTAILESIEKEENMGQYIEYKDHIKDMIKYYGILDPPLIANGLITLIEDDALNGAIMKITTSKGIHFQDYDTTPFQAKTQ
Method in brief: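 20 nM HPGD preincubated 15 min at room temperature with compound in 50 mM Tris-HCl pH 8, 0.01% Tween 20. Started with 1 mM NAD+ and 30 uM prostaglandin E2; NADH fluorescence (360/450 nm) read 5 times over 30-s intervals, last minus first.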
% is scaled to controls: 0 for no effect and ±100 for the full control effect; potency is read from the fitted curve at half-maximal effect; tags tell the direction and shape of the fitted curve.

| Structure (SMILES) | activity change, negative = inhibition | Potency |
| --- | --- | --- |
| Cc1ccnc(NS(=O)(=O)c2ccc(N)cc2)n1 | inactive: -0.705% and inactive: 7.46% and inactive: -13.4% |  |
| O=C(NCc1ccc(F)cc1)c1cnc2sccn2c1=O |  | inconclusive: 22.4 µM [inhibitor, partial curve] |
| CCc1sc(C(=O)Nc2ccc(NC(C)=O)cc2)cc1C |  | inconclusive: 35.5 µM [inhibitor, single point] |
| N#Cc1ccc(CN2CCCC3(CCN(C(=O)c4csnn4)CC3)C2)cc1 | inactive: -9.93% |  |
| CCCCn1c(=NC(C)=O)c(C#N)cc2c(=O)n3cccc(C)c3nc21 |  | inconclusive: 3.55 µM [inhibitor, full curve] |
| O=C1/C(=C/c2ccccc2)CSc2sccc21 |  | inconclusive: 35.5 µM [inhibitor, single point] |
| CCCCn1nc(NC(=O)c2cccs2)c2cc3ccccc3nc21 |  | inconclusive: 31.6 µM [inhibitor, single point] |
| O=C(O)CCn1c(=O)[nH]c2ccccc2c1=O |  | inconclusive: 17.8 µM [inhibitor, partial curve] |
| Cc1ccc(Cn2c(NC(=O)c3ccco3)nc3ccccc32)cc1 |  | inconclusive: 25.1 µM [inhibitor, partial curve] |
| O=c1[nH]cnc2sc3c(c12)CCN(Cc1ccccc1)C3 |  | inconclusive: 31.6 µM [inhibitor, partial curve] |
| O=C(NC(=S)Nc1ccccc1N1CCCC1)c1ccc([N+](=O)[O-])cc1 |  | inconclusive: 28.2 µM [inhibitor, single point] |
| CC(C)(C)NC(=O)CON=C1c2ccccc2-c2ccccc21 |  | inconclusive: 14.1 µM [inhibitor, partial curve, poor fit] |
| Cc1ccc(-n2nc3cc(C)c(N)cc3n2)cc1 |  | inconclusive: 3.55 µM [inhibitor, partial curve] |
| Cc1cc2n(n1)SC(Nc1cccc3ccccc13)N2 (stereo not given) | inactive: -20.9% |  |
| COC(=O)c1ccccc1NC(=O)c1ccc(COc2ccccc2)o1 |  | inconclusive: 31.6 µM [inhibitor, single point] |
| CC(C)=C1C(=O)NN(c2ccc(F)c(Cl)c2)C1=O |  | active: 8.91 µM |
| CCn1c(=O)c2cc(C(=O)NCCN3CCOCC3)sc2c2ccccc21 |  | inconclusive: 14.1 µM [inhibitor, partial curve] |
| CC1CCN(C(=O)Cn2c(=O)oc3ccccc32)CC1 | inactive: -0.55% |  |
| CN1CCN(S(=O)(=O)c2ccc(NC(=S)NC(=O)c3ccccc3)cc2)CC1 |  | inconclusive: 39.8 µM [inhibitor, single point] |
| CCCOc1ccc(Br)cc1CSC(=N)N |  | inconclusive: 39.8 µM [inhibitor, single point] |
| COc1ccccc1C1OC(=O)CC1C(=O)OC[C@@H]1CCCN2CCCCC12 (stereo not given in full) | inactive: -2.57% |  |
| COc1ccc(S(=O)(=O)n2nc(-c3ccc(Cl)cc3)cc2N)cc1OC | inactive: -18.6% |  |

| Structure (SMILES) | activity change, negative = inhibition | Potency |
| --- | --- | --- |
| COCC(C)OC(=O)/C(C#N)=C\c1coc2ccc(C)cc2c1=O (stereo not given) |  | inconclusive: 25.1 µM [inhibitor, partial curve, poor fit] |
| O=S(=O)(c1ccc(F)cc1)N1CCN(c2ccccc2)CC1 |  | inconclusive: 31.6 µM [inhibitor, single point] |
| Cc1cc(C)c2nc3nc(C)cc(C)c3c(N)c2c1 |  | inconclusive: 31.6 µM [inhibitor, partial curve] |
| COc1ccc(CC(NC(C)=O)C(=O)NC2CCN(c3nc(C)cc(C)c3C#N)CC2)c(OC)c1 (stereo not given) |  | inconclusive: 31.6 µM [inhibitor, partial curve] |
| COc1ccccc1C(=O)ON=C1c2ccccc2-c2ccccc21 |  | inconclusive: 31.6 µM [inhibitor, partial curve] |
| COc1cccc(OCCSc2nnc3sc4ccccc4n23)c1 |  | inconclusive: 39.8 µM [inhibitor, partial curve] |
| COc1ccc(-n2nc(C(=O)Nc3ccc(OC)c(OC)c3)c3c4ccccc4n(C)c3c2=O)cc1 |  | inconclusive: 25.1 µM [inhibitor, partial curve, poor fit] |
| O=C(c1ccccc1)c1ccc(N2CCOCC2)c(F)c1 |  | active: 25.1 µM |
| COC(=O)c1[nH]c2cc(OC)ccc2c1N |  | inconclusive: 31.6 µM [inhibitor, partial curve] |
| O=C(COC(=O)CCc1c[nH]c2ccccc12)NCc1ccc(Cl)cc1 |  | inconclusive: 14.1 µM [inhibitor, partial curve, poor fit] |
| COc1ccc(-c2coc3cc(O)ccc3c2=O)c(OC)c1O |  | inconclusive: 31.6 µM [inhibitor, single point] |
| Clc1ccc(-c2cn3cccnc3n2)cc1 |  | inconclusive: 28.2 µM [inhibitor, partial curve] |
| CC1CN(C(=O)/C=C/c2ccc3c(c2)OCO3)CC(C)O1 (stereo not given) |  | inconclusive: 25.1 µM [inhibitor, single point] |
| Cc1ccc2nc(SCc3nnc(-c4ccccc4)o3)[nH]c2c1 |  | inconclusive: 28.2 µM [inhibitor, partial curve] |
| c1ccc(-n2cnc3cc(NCc4cccs4)ccc32)cc1 |  | inconclusive: 3.16 µM [inhibitor, full curve] |
| COc1ccc(-c2cc(=O)c3c(O)cc(O[C@@H]4OC(COC5OC(C)C(O)C(O)[C@@H]5O)C(O)C(O)C4O)cc3o2)cc1 (stereo not given in full) |  | active: 22.4 µM |
| COc1ccc(NC(=O)CO/N=C2\CCCc3nonc32)cc1 | inactive: -9.32% |  |
| O=C(CSc1ccc(-c2ccco2)nn1)c1ccc(F)cc1 |  | inconclusive: 28.2 µM [inhibitor, partial curve, poor fit] |
| COCCCNC(=O)c1cc2c(=O)n3cc(C)ccc3nc2nc1NCC1CCCO1 (stereo not given) |  | inconclusive: 12.6 µM [inhibitor, partial curve] |
| O=C(CSc1ccccc1)Nc1ccc(S(=O)(=O)NCC2CCCO2)cc1 (stereo not given) |  | inconclusive: 17.8 µM [inhibitor, partial curve] |
| CCc1n[nH]c2c1/C(=N\O)CC(c1ccccc1)C2 (stereo not given) |  | active: 3.98 µM |
| Cc1ccc(S(=O)(=O)N(C)c2ccc(C(=O)N3CCC(C(N)=O)CC3)cc2)cc1 |  | active: 28.2 µM |

| Structure (SMILES) | activity change, negative = inhibition | Potency |
| --- | --- | --- |
| CC(=O)NCC(=O)OCC(=O)c1ccc2ccccc2c1 |  | inconclusive: 39.8 µM [inhibitor, single point] |
| CN(C)CCCN1C(=O)c2oc3ccc(F)cc3c(=O)c2C1c1cccnc1 (stereo not given) |  | inconclusive: 20 µM [inhibitor, partial curve] |
| Cc1cccc(C)c1NC(=O)COC(=O)c1c2c(nc3ccccc13)/C(=C\c1ccc3c(c1)OCO3)CCC2 |  | inconclusive: 22.4 µM [inhibitor, partial curve] |
| Cc1ccccc1NC(=O)c1sc(NC(=O)COc2ccccc2)c(C#N)c1C | inactive: -26% |  |
| COc1nccnc1NS(=O)(=O)c1ccc(N=Cc2c(C)[nH]n(-c3ccc(Cl)cc3)c2=O)cc1 |  | inconclusive: 20 µM [inhibitor, partial curve, poor fit] |
| COc1ccc2cc3cc(C(=O)NCc4cccs4)oc3nc2c1 |  | inconclusive: 28.2 µM [inhibitor, partial curve] |
| c1ccc(Oc2nc3ccccc3n3cccc23)cc1 |  | inconclusive: 31.6 µM [inhibitor, partial curve] |
| COC(=O)Nc1c(-c2ccccc2)nc2ccc(C)cn12 |  | inconclusive: 28.2 µM [inhibitor, partial curve] |
| Cc1ccc(NC(=O)COc2cccc3ccc(C)nc23)c(Br)c1 |  | active: 11.2 µM |
| CCOC(=O)c1nn(-c2ccccc2C)c2nc(-c3ccc(Cl)cc3)c(C#N)c(=O)n12 |  | inconclusive: 35.5 µM [inhibitor, single point] |
| CCCc1nc(SCC(=O)Nc2ccccc2OC)c2c(=O)n(C)c(=O)n(C)c2n1 | inactive: -0.308% |  |
| NS(=O)(=O)c1ccc(NC(=O)c2cc(-c3cccs3)nc3ccccc23)cc1 |  | inconclusive: 31.6 µM [inhibitor, partial curve] |
| Cc1ccc(-c2nc(N)n(S(C)(=O)=O)n2)cc1 | inactive: -13.8% |  |
| Cc1ccsc1/C=C(\C#N)C(=O)Nc1c(C)n(C)n(-c2ccccc2)c1=O |  | inconclusive: 20 µM [inhibitor, partial curve] |
| COc1ccc(C(=O)/C=C/Nc2ccc(S(=O)(=O)Nc3ncccn3)cc2)cc1 |  | inconclusive: 14.1 µM [inhibitor, partial curve] |
| Cc1nc2ccc(NC(=O)c3cc([N+](=O)[O-])cc([N+](=O)[O-])c3Cl)cc2s1 |  | active: 7.08 µM |
| Cc1c(C(=O)O)c(O)cc2c1C(=O)c1c(O)c([C@H]3O[C@H](CO)[C@@H](O)[C@H](O)[C@H]3O)c(O)c(O)c1C2=O |  | active: 8.91 µM and active: 25.1 µM and active: 17.8 µM |
| COc1ccc(COc2cc(-c3cccc(OC)c3)nc3ccc(N)cc23)cc1 |  | inconclusive: 25.1 µM [inhibitor, partial curve] and inconclusive: 35.5 µM [inhibitor, partial curve] |
| CC(C)c1ccc(-c2c(C#N)c(N)nc(SCC(=O)N3CCCCC3)c2C#N)cc1 |  | inconclusive: 35.5 µM [inhibitor, partial curve] |
| CC(=O)Nc1ccc(OC(=O)c2cc([N+](=O)[O-])ccc2Cl)cc1 | inactive: -9.39% |  |
| CCC(=O)N(Cc1cc2cc(OC)ccc2[nH]c1=O)c1cc(C)ccc1C |  | inconclusive: 22.4 µM [inhibitor, partial curve] |
